# According to PubChem BioAssay (NCI):
# Where “and” joins values, the source holds several entries; their conditions need not be identical. Identical values can stand only once.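 Where inhibition never reached the appropriate level, the endpoint shown equals the highest concentration tested. Otherwise, values were interpolated linearly from a five-concentration, 48-hour dose response in 96-well plates. Abbreviation: GI50, concentration required for 50% inhibition of growth. At the TGI there is no net growth.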
# Tested on: NCI-H322M lung
# Assay: NCI-60 cell line screen, 48 h
SMILES,TGI,GI50
CC[C@@]12CCCN3CC[C@]4(c5cccc(OC)c5N(C(C)=O)[C@@H]4CC1)[C@H]32,> 100 µM,–
Cc1ccc(-c2n[nH]c(Cc3nc(-c4ccc(C)cc4)n[nH]3)n2)cc1,> 100 µM,–
O=C(C1OC1c1ccc(Cl)cc1)C12CC3CC(CC(C3)C1)C2 (configuration not stated),47.8 µM,–
COc1ccc(C2=CSc3cc(Cl)c(C)cc3S(=O)(=O)N2C(C)=O)cc1,68.1 µM,19.8 µM
CC1=C(C(=O)Nc2ccccc2C)C(c2ccco2)C(C(=O)Nc2ccccc2C)=C(C)N1C,> 100 µM,–
COC(=O)[C@@]12C3=NO[C@]1(C(=O)OC)C(O[Si](C)(C)C(C)(C)C)[C@H]1OC(C)(C)O[C@H]1[C@@H]2C(OCc1ccccc1)CC3 (some centres not stated),> 100 µM,–
COc1ccc(-n2/c(=N/C(=S)N(C)C)ss/c2=N\C(=S)N(C)C)cc1,> 100 µM,–
C[N+](C)(CCCn1ccnc1[N+](=O)[O-])CCCn1ccnc1[N+](=O)[O-],> 100 µM,–
CCCN(CCC)CCc1ccc(OC2=CCN(C)CC2)cc1,> 100 µM,–
C=C1C[C@@H]2CC[C@@]34CC5O[C@H]6C(O[C@H]7CC[C@H](CC(=O)O[C@@H]8[C@@H](C)[C@@H]9O[C@@H]%10C[C@]%11(C[C@@H]%12O[C@]%13(C[C@H](C)[C@@H]%14O[C@@H]%15CC(C(O)CO)O[C@@H]%15C[C@@H]%14O%13)C[C@H](C)[C@@H]%12O%11)O[C@@H]%10C[C@@H]9O[C@H]8CC8O[C@@H](CC[C@@H]1O2)C[C@@H](C)C8(O)CO)O[C@@H]7[C@@H]6O3)[C@H]5O4 (some centres not stated),> 1 µM,–
O=C(O)C(Cc1ccccc1)N1C(=O)N/C(=C\c2ccc(F)cc2)C1=O (configuration not stated),74.9 µM,–
NC1CCC(Nc2nc(NCc3ccc(-c4ccco4)nc3)c3ncn(C4CCCC4)c3n2)CC1 (configuration not stated),–,0.0285 µM
CCN(CC)c1ccc2cc(C(N)=O)c(=N)oc2c1,> 100 µM,–
CN(C)CCCNC1=C(Cl)C(=O)c2ccccc2C1=O,15.5 µM,6.22 µM
O=C(Nc1ccc(F)cc1F)c1cc(I)ccc1O,60.4 µM,3.13 µM
C=C1C(=O)[C@@]23CC[C@H]4[C@@](C)(CCC[C@@]4(C)C(=O)OC)[C@@H]2CC[C@]1(O)C3,26.3 µM and 3.23 µM,12.7 µM
COc1c2ccoc2c(/C=C/C=O)c2oc(-c3ccccc3)cc(=O)c12,> 100 µM,9.69 µM
O=C1NC2(CCCCC2)C2CCCCC(O)C12 (configuration not stated),> 100 µM,–
Nc1ncc(Br)c(NCC2(CO)CCC2)n1,> 100 µM,–
COc1ccc(N2CN3OC(=O)N(c4ccc(OC)cc4)[C@@]3(c3ccccc3)C2)cc1,> 100 µM,–
CC1(C)COC(c2ccc(C(F)(F)F)cc2C(O)c2ccc3ccccc3c2)=N1 (configuration not stated),> 100 µM,> 100 µM
